Whole data set: some 33,000 sequences, median “E-score (-0.5 to 0.5)” near -0.032, cut for the highest 2% near 0.36. The list shows a part of the results.
Target: T1, Sko1 (UniProt Q02100)
T1 sequence: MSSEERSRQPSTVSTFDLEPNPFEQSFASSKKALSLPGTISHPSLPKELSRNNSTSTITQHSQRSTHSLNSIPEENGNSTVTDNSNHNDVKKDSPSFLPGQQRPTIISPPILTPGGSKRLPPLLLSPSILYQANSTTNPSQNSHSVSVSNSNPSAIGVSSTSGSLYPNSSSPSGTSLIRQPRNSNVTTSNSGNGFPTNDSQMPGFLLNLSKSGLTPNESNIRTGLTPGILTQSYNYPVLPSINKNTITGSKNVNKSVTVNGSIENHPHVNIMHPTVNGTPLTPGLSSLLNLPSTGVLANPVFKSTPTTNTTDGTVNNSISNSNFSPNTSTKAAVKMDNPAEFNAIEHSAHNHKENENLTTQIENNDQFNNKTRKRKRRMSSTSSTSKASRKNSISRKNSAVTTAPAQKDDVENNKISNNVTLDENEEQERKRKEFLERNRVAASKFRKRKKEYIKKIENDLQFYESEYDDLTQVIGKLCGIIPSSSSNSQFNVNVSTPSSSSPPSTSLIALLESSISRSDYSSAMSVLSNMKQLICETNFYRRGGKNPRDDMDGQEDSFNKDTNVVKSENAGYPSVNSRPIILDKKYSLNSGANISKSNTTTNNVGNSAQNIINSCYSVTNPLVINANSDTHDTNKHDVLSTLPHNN
Test: PBM E-score (8-mer binding enrichment) (E-score (-0.5 to 0.5)); higher = stronger / more preferred TF binding; most listed sequences are background and not binding sites
Settings: protein concentration: 200 nM; construct: GST-full length
Outline: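 Using PURExpress in vitro transcription/translation, GST-tagged yeast transcription factors were made in full-length or DNA-binding-domain form. These were applied at about 100-200 nM to double-stranded universal all-10-mer Agilent arrays, and bound protein was detected with fluorescent anti-GST. Scans were normalised with masliner before the Universal PBM Analysis Suite assigned E-scores to ungapped eight-base words pooled with their reverse complements.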

Question: With TCTGACCA as the sequence, how does the “PBM E-score” value read?
Answer: Its value is 0.0416.

Question: With CCTCGCAC as the sequence, how does the “PBM E-score” value read?
Answer: The value was 0.00642.

Question: Which “PBM E-score” value does the source give for ACTCTGGG here?
Answer: Its value is -0.192.

Question: Which “PBM E-score” value does the source give for AGCGCTCG here?
Answer: The value was -0.31.

Question: With CAAGCTGA as the sequence, how does the “PBM E-score” value read?
Answer: The value was -0.0925.

Question: With CTTCCTTA as the sequence, how does the “PBM E-score” value read?
Answer: The value was 0.0568.

Question: CCCTGTGC was tested. Which “PBM E-score” value did it give?
Answer: The value was -0.174.

Question: How did the “PBM E-score” value turn out when GATGTTGA was run?
Answer: Its value is 0.148.

Question: Which “PBM E-score” value does the source give for ACCCTACT here?
Answer: Its value is -0.0914.

Question: For AAGGGGCA, which “PBM E-score” value is on record?
Answer: Its value is -0.275.

Question: How did the “PBM E-score” value turn out when GGGGTTTA was run?
Answer: The value was -0.235.

Question: With CAGTTGCC as the sequence, how does the “PBM E-score” value read?
Answer: The value was 0.0837.

Question: Which “PBM E-score” value does the source give for ATTATGGA here?
Answer: The value was 0.173.

Question: For AAATGGGT, which “PBM E-score” value is on record?
Answer: The value was 0.104.

Question: Which “PBM E-score” value does the source give for CAAATCTC here?
Answer: Its value is -0.0604.

Question: CTGATCTC was tested. Which “PBM E-score” value did it give?
Answer: The value was -0.0913.

Question: Which “PBM E-score” value does the source give for GCACAACC here?
Answer: The value was -0.219.

Question: For AGTTTCGG, which “PBM E-score” value is on record?
Answer: Its value is -0.0342.

Question: GAAACGCC was tested. Which “PBM E-score” value did it give?
Answer: The value was 0.145.

Question: How did the “PBM E-score” value turn out when TGCAGCAA was run?
Answer: The value was 0.0131.

Question: Which “PBM E-score” value does the source give for GAGGCATC here?
Answer: Its value is -0.0198.

Question: Which “PBM E-score” value does the source give for AGACAGGA here?
Answer: Its value is -0.00599.

Question: How did the “PBM E-score” value turn out when CCGGGGGA was run?
Answer: Its value is -0.461.

Question: ATGCAATG was tested. Which “PBM E-score” value did it give?
Answer: The value was 0.159.

Question: ATCGCTGC was tested. Which “PBM E-score” value did it give?
Answer: The value was -0.0434.

Question: With CTTAAGAA as the sequence, how does the “PBM E-score” value read?
Answer: Its value is 0.145.

Question: With AAACGGAC as the sequence, how does the “PBM E-score” value read?
Answer: The value was -0.0384.

Question: Which “PBM E-score” value does the source give for GAGCCTGC here?
Answer: Its value is -0.228.

Question: How did the “PBM E-score” value turn out when CATTATAC was run?
Answer: Its value is 0.192.

Question: How did the “PBM E-score” value turn out when CTCATTCA was run?
Answer: The value was 0.0229.

Question: Which “PBM E-score” value does the source give for ATGAGCCC here?
Answer: Its value is -0.326.

Question: GCGTTGGA was tested. Which “PBM E-score” value did it give?
Answer: Its value is -0.00317.

Question: Which “PBM E-score” value does the source give for CCAGCCTC here?
Answer: The value was -0.238.

Question: With TAAAGCCA as the sequence, how does the “PBM E-score” value read?
Answer: The value was 0.103.

Question: For CCAAGTCC, which “PBM E-score” value is on record?
Answer: Its value is -0.282.

Question: Which “PBM E-score” value does the source give for TCATGTCA here?
Answer: The value was 0.306.

Question: With AAGGCGCC as the sequence, how does the “PBM E-score” value read?
Answer: Its value is -0.333.

Question: How did the “PBM E-score” value turn out when CTGGGATC was run?
Answer: Its value is -0.184.

Question: For CAGAATAG, which “PBM E-score” value is on record?
Answer: Its value is -0.0348.

Question: ACGTCCTG was tested. Which “PBM E-score” value did it give?
Answer: Its value is 0.181.

Question: With GCCCGGAA as the sequence, how does the “PBM E-score” value read?
Answer: Its value is -0.31.

Question: ACAAGGCT was tested. Which “PBM E-score” value did it give?
Answer: Its value is -0.192.

Question: CTAACATC was tested. Which “PBM E-score” value did it give?
Answer: Its value is 0.0802.

Question: TACTCCGA was tested. Which “PBM E-score” value did it give?
Answer: The value was -0.246.

Question: For CCACCGCG, which “PBM E-score” value is on record?
Answer: The value was -0.00103.

Question: TACGTCGA was tested. Which “PBM E-score” value did it give?
Answer: The value was 0.422.

Question: Which “PBM E-score” value does the source give for CCAGTGAG here?
Answer: Its value is -0.193.

Question: Which “PBM E-score” value does the source give for CCTGTCCA here?
Answer: Its value is -0.401.

Question: With AATCGTCC as the sequence, how does the “PBM E-score” value read?
Answer: The value was 0.0937.

Question: For CGATGCCC, which “PBM E-score” value is on record?
Answer: The value was -0.187.

Question: For ATTGGAGA, which “PBM E-score” value is on record?
Answer: The value was 0.0978.

Question: Which “PBM E-score” value does the source give for AATTGGAA here?
Answer: The value was 0.0969.

Question: How did the “PBM E-score” value turn out when CGGTGCGA was run?
Answer: The value was 0.0547.

Question: How did the “PBM E-score” value turn out when CCAGACGG was run?
Answer: The value was -0.364.

Question: How did the “PBM E-score” value turn out when ACAACTCA was run?
Answer: The value was 0.00058.

Question: With AATTCGAT as the sequence, how does the “PBM E-score” value read?
Answer: The value was 0.116.

Question: With ACGTGGGA as the sequence, how does the “PBM E-score” value read?
Answer: The value was 0.313.

Question: With GTACTCAA as the sequence, how does the “PBM E-score” value read?
Answer: Its value is 0.0529.

Question: AGGCTATC was tested. Which “PBM E-score” value did it give?
Answer: The value was -0.0942.

Question: Which “PBM E-score” value does the source give for AGAGGTTA here?
Answer: The value was -0.0283.

Question: AATCACCG was tested. Which “PBM E-score” value did it give?
Answer: Its value is -0.0938.

Question: How did the “PBM E-score” value turn out when AATAGGAA was run?
Answer: Its value is 0.086.

Question: Which “PBM E-score” value does the source give for CCGCTATA here?
Answer: The value was 0.0771.

Question: With TGCCGAAA as the sequence, how does the “PBM E-score” value read?
Answer: Its value is -0.0554.

Question: With GTAGCCAA as the sequence, how does the “PBM E-score” value read?
Answer: Its value is -0.019.

Question: How did the “PBM E-score” value turn out when CCAGAGAG was run?
Answer: The value was -0.331.

Question: With CGCTGGCC as the sequence, how does the “PBM E-score” value read?
Answer: The value was -0.32.

Question: Which “PBM E-score” value does the source give for CGAGAGTA here?
Answer: The value was 0.0833.

Question: Which “PBM E-score” value does the source give for AGCAGCTG here?
Answer: The value was -0.136.

Question: How did the “PBM E-score” value turn out when CGACAGTC was run?
Answer: Its value is -0.185.

Question: For AGTATAAG, which “PBM E-score” value is on record?
Answer: Its value is 0.113.

Question: Which “PBM E-score” value does the source give for GTAGGCGA here?
Answer: The value was -0.0929.

Question: Which “PBM E-score” value does the source give for AAACCGTT here?
Answer: Its value is -0.145.

Question: Which “PBM E-score” value does the source give for ATAAGATA here?
Answer: The value was 0.161.

Question: For CAGTGTGC, which “PBM E-score” value is on record?
Answer: Its value is -0.314.

Question: Which “PBM E-score” value does the source give for CAGAGTGA here?
Answer: The value was 0.00479.

Question: With ACACTCCG as the sequence, how does the “PBM E-score” value read?
Answer: The value was -0.0952.

Question: Which “PBM E-score” value does the source give for AGGATGGC here?
Answer: The value was -0.142.

Question: How did the “PBM E-score” value turn out when CTCATTGA was run?
Answer: Its value is -0.0333.

Question: How did the “PBM E-score” value turn out when AAGACCAC was run?
Answer: The value was -0.174.

Question: For AACTCGAT, which “PBM E-score” value is on record?
Answer: The value was 0.109.

Question: How did the “PBM E-score” value turn out when CGATAACG was run?
Answer: Its value is 0.257.

Question: How did the “PBM E-score” value turn out when ACCAAAAT was run?
Answer: Its value is 0.0116.

Question: CATGCATC was tested. Which “PBM E-score” value did it give?
Answer: The value was -0.0481.

Question: Which “PBM E-score” value does the source give for CTCAAGTA here?
Answer: Its value is 0.0258.

Question: For ACCCCGGC, which “PBM E-score” value is on record?
Answer: The value was -0.174.

Question: How did the “PBM E-score” value turn out when ACCCCCCC was run?
Answer: Its value is -0.378.

Question: For CAGATACA, which “PBM E-score” value is on record?
Answer: Its value is 0.211.

Question: For AGGCCAGC, which “PBM E-score” value is on record?
Answer: Its value is -0.155.

Question: With GATAACGC as the sequence, how does the “PBM E-score” value read?
Answer: Its value is 0.0841.

Question: CCTGCGGA was tested. Which “PBM E-score” value did it give?
Answer: The value was -0.161.

Question: For TAGGTACA, which “PBM E-score” value is on record?
Answer: Its value is -0.00865.

Question: Which “PBM E-score” value does the source give for CAACATCA here?
Answer: Its value is 0.294.

Question: CGCTGCCA was tested. Which “PBM E-score” value did it give?
Answer: The value was -0.127.

Reference: the supplement of paper PMC3334620
